Measurements: the supplement of paper PMC4466236
The full ranking holds about 33,000 sequences; the median of “E-score (dimensionless, -0.5 to 0.5)” is about -0.058, and the highest 2% start at about 0.35. The list shows a part of the results.

These sequences were tested on MvaT (assay: PBM 8-mer E-score (mean of HK and ME arrays) (E-score (dimensionless, -0.5 to 0.5)); higher = stronger relative binding preference; most listed sequences are background and not binding sites).
In short: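 Reported values are rank-based E-scores, taken as the mean of two universal arrays and parsed with a custom script. Each 8-mer score falls between -0.5 and 0.5. The arrays, ME and HK, were double-stranded 60-mers with a constant 25-mer primer region and a variable 35-mer region covering all 8-mers. They were probed, by an earlier protocol, with full-length P. aeruginosa MvaT carrying an N-terminal glutathione S-transferase fusion.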
In the case of GAACAATA, the “PBM 8-mer E-score” value is reported as 0.267.
GCTGGCAA was tested, and the “PBM 8-mer E-score” value was 0.02.
ATTAGTGC was tested, and the “PBM 8-mer E-score” value was 0.214.
TCAGGCGA was tested, and the “PBM 8-mer E-score” value was -0.0608.
In the case of GAGCAGGC, the “PBM 8-mer E-score” value is reported as -0.379.
For AGCCCCGA, the “PBM 8-mer E-score” value was -0.309.
For ATCATAAG, the “PBM 8-mer E-score” value was 0.161.
With TAGGCCAA the “PBM 8-mer E-score” value was -0.0157.
GTGGGTAA was tested, and the “PBM 8-mer E-score” value was 0.0827.
In the case of ACTGAAGT, the “PBM 8-mer E-score” value is reported as 0.0656.
For GACAGGCA, the “PBM 8-mer E-score” value was -0.187.
ATTCGATC was tested, and the “PBM 8-mer E-score” value was 0.0444.
GGTATAGA was tested, and the “PBM 8-mer E-score” value was 0.08.
For AAAGTATT, the “PBM 8-mer E-score” value was 0.27.
In the case of CGGTGTAA, the “PBM 8-mer E-score” value is reported as -0.0735.
In the case of CACGCGCC, the “PBM 8-mer E-score” value is reported as -0.16.
In the case of AAACCTTG, the “PBM 8-mer E-score” value is reported as -0.0721.
In the case of TCCATCAA, the “PBM 8-mer E-score” value is reported as -0.032.
In the case of GGAGGTGA, the “PBM 8-mer E-score” value is reported as -0.191.
CGTAGGAG was tested, and the “PBM 8-mer E-score” value was -0.193.
For ACTGGTCC, the “PBM 8-mer E-score” value was -0.187.
For CACGTCAG, the “PBM 8-mer E-score” value was -0.292.
In the case of ATAACTAA, the “PBM 8-mer E-score” value is reported as 0.32.
For ATGTTTAC, the “PBM 8-mer E-score” value was 0.175.
For AAGTATCT, the “PBM 8-mer E-score” value was 0.238.
For GCGCAGAA, the “PBM 8-mer E-score” value was -0.0614.
In the case of GATGCTTA, the “PBM 8-mer E-score” value is reported as 0.0939.
For AGTCAACC, the “PBM 8-mer E-score” value was -0.0374.
For GGCTGCAC, the “PBM 8-mer E-score” value was -0.168.
For GGCATTAA, the “PBM 8-mer E-score” value was 0.193.
ACATTCGA was tested, and the “PBM 8-mer E-score” value was 0.036.
ATAATAAT was tested, and the “PBM 8-mer E-score” value was 0.463.
With AGCAGGAT the “PBM 8-mer E-score” value was -0.103.
With ACCCCCGC the “PBM 8-mer E-score” value was -0.222.
CGCTCAAC was tested, and the “PBM 8-mer E-score” value was -0.0575.
With GGGATATA the “PBM 8-mer E-score” value was 0.218.
AGCCGGGC was tested, and the “PBM 8-mer E-score” value was -0.237.
GAACAGAC was tested, and the “PBM 8-mer E-score” value was 0.0503.
For GTTGGGAA, the “PBM 8-mer E-score” value was -0.0473.
For AATGGTGA, the “PBM 8-mer E-score” value was 0.0929.
With GCCATAGA the “PBM 8-mer E-score” value was -0.0619.
AGAAATAA was tested, and the “PBM 8-mer E-score” value was 0.37.
CGGCGAAA was tested, and the “PBM 8-mer E-score” value was -0.0328.
For AATCTTAA, the “PBM 8-mer E-score” value was 0.182.
With CGGGCTGA the “PBM 8-mer E-score” value was -0.16.
For AGACTTAA, the “PBM 8-mer E-score” value was 0.133.
In the case of ATCCGGAG, the “PBM 8-mer E-score” value is reported as -0.11.
CGCCTGTA was tested, and the “PBM 8-mer E-score” value was -0.0294.
In the case of AATAAATG, the “PBM 8-mer E-score” value is reported as 0.33.
In the case of AAACAATG, the “PBM 8-mer E-score” value is reported as 0.201.
For ACATGCAT, the “PBM 8-mer E-score” value was 0.163.
For CCCACCGG, the “PBM 8-mer E-score” value was -0.227.
For GTGGATGA, the “PBM 8-mer E-score” value was -0.19.
With GTGGGCTA the “PBM 8-mer E-score” value was -0.0982.
For AGAAGTCG, the “PBM 8-mer E-score” value was -0.127.
With CATGTCTA the “PBM 8-mer E-score” value was -0.0723.
ATGCAAAC was tested, and the “PBM 8-mer E-score” value was 0.104.
For ATTGACGA, the “PBM 8-mer E-score” value was -0.0515.
For GTCAGAGA, the “PBM 8-mer E-score” value was -0.236.
In the case of TTATGGAA, the “PBM 8-mer E-score” value is reported as 0.173.
In the case of CAGCCTGA, the “PBM 8-mer E-score” value is reported as -0.00325.
CCCATAAA was tested, and the “PBM 8-mer E-score” value was 0.0641.
For ACTTTTAC, the “PBM 8-mer E-score” value was 0.211.
In the case of GAGTCCCC, the “PBM 8-mer E-score” value is reported as -0.251.
ATCCAATC was tested, and the “PBM 8-mer E-score” value was -0.0136.
With ACTTAGAA the “PBM 8-mer E-score” value was 0.296.
With AGCACGGC the “PBM 8-mer E-score” value was -0.297.
For ACAGGAGT, the “PBM 8-mer E-score” value was -0.104.
In the case of TACGCTGA, the “PBM 8-mer E-score” value is reported as -0.091.
For CCATAGCG, the “PBM 8-mer E-score” value was -0.0585.
With ATTGTCCG the “PBM 8-mer E-score” value was 0.0479.
In the case of AATTGCCA, the “PBM 8-mer E-score” value is reported as 0.199.
With GGTACAAA the “PBM 8-mer E-score” value was 0.0825.
For CTCGATGA, the “PBM 8-mer E-score” value was -0.0603.
With AACACCTC the “PBM 8-mer E-score” value was 0.108.
With CGCATCGA the “PBM 8-mer E-score” value was -0.122.
For AGCCAGCT, the “PBM 8-mer E-score” value was -0.335.
For TATCACCA, the “PBM 8-mer E-score” value was -0.00303.
For AATGCCGT, the “PBM 8-mer E-score” value was 0.0989.
For AGGACGAA, the “PBM 8-mer E-score” value was -0.196.
For CTCGCCCA, the “PBM 8-mer E-score” value was -0.184.
In the case of TAAAGCAA, the “PBM 8-mer E-score” value is reported as 0.19.
For CATTGCAA, the “PBM 8-mer E-score” value was 0.00715.
With AGCCTTCA the “PBM 8-mer E-score” value was -0.213.
CTAGTGAC was tested, and the “PBM 8-mer E-score” value was -0.253.
With TGCAGCCA the “PBM 8-mer E-score” value was -0.215.
For CATGAGCC, the “PBM 8-mer E-score” value was -0.2.
With AATCACTA the “PBM 8-mer E-score” value was 0.0235.
With ATTGGGGA the “PBM 8-mer E-score” value was -0.0105.
With CGCAGTAG the “PBM 8-mer E-score” value was -0.207.
GAACCTAA was tested, and the “PBM 8-mer E-score” value was -0.00933.
For GGAGGGAA, the “PBM 8-mer E-score” value was -0.288.
CGCCAAAC was tested, and the “PBM 8-mer E-score” value was 0.00559.
For GGCGATCA, the “PBM 8-mer E-score” value was 0.0093.
